In PubChem BioAssay AID504333 (National Center for Advancing Translational Sciences (NCATS), 2011):
Screen size: about 360,000 compounds; about 16,000 (4.4%) were called active. Inconclusive means that the source gave no clear call. Such entries were picked first, then a sample of the others. Calls come from the whole dose curve; as a rule, active = well fitted inhibition curve with a large enough effect; inconclusive = small, poorly fitted or top-dose-only effect; inactive = no such curve, though single readings can be large or run the other way. Potencies beside an inconclusive call are fits to weak or partial responses and may not hold up.
% is set by controls: 0 for no effect and ±100 for the full control effect; potency is the fitted concentration of half-maximal effect; tags give direction and shape of the fitted curve.
Note: nearly all actives have a fitted effect of over 60% in size.

Each compound was assayed against Bromodomain adjacent to zinc finger domain protein 2B (Homo sapiens) (UniProt Q9UIF8) (assay: qHTS Assay for Inhibitors of BAZ2B). Settings: AlphaScreen BAZ2B-H3K14Ac peptide displacement; activity change, negative = inhibition: at 114 µM (top of the series) unless noted.
Sequence of UniProt Q9UIF8 (Q9UIF8 whole entry, looked up, the tested form may be a part): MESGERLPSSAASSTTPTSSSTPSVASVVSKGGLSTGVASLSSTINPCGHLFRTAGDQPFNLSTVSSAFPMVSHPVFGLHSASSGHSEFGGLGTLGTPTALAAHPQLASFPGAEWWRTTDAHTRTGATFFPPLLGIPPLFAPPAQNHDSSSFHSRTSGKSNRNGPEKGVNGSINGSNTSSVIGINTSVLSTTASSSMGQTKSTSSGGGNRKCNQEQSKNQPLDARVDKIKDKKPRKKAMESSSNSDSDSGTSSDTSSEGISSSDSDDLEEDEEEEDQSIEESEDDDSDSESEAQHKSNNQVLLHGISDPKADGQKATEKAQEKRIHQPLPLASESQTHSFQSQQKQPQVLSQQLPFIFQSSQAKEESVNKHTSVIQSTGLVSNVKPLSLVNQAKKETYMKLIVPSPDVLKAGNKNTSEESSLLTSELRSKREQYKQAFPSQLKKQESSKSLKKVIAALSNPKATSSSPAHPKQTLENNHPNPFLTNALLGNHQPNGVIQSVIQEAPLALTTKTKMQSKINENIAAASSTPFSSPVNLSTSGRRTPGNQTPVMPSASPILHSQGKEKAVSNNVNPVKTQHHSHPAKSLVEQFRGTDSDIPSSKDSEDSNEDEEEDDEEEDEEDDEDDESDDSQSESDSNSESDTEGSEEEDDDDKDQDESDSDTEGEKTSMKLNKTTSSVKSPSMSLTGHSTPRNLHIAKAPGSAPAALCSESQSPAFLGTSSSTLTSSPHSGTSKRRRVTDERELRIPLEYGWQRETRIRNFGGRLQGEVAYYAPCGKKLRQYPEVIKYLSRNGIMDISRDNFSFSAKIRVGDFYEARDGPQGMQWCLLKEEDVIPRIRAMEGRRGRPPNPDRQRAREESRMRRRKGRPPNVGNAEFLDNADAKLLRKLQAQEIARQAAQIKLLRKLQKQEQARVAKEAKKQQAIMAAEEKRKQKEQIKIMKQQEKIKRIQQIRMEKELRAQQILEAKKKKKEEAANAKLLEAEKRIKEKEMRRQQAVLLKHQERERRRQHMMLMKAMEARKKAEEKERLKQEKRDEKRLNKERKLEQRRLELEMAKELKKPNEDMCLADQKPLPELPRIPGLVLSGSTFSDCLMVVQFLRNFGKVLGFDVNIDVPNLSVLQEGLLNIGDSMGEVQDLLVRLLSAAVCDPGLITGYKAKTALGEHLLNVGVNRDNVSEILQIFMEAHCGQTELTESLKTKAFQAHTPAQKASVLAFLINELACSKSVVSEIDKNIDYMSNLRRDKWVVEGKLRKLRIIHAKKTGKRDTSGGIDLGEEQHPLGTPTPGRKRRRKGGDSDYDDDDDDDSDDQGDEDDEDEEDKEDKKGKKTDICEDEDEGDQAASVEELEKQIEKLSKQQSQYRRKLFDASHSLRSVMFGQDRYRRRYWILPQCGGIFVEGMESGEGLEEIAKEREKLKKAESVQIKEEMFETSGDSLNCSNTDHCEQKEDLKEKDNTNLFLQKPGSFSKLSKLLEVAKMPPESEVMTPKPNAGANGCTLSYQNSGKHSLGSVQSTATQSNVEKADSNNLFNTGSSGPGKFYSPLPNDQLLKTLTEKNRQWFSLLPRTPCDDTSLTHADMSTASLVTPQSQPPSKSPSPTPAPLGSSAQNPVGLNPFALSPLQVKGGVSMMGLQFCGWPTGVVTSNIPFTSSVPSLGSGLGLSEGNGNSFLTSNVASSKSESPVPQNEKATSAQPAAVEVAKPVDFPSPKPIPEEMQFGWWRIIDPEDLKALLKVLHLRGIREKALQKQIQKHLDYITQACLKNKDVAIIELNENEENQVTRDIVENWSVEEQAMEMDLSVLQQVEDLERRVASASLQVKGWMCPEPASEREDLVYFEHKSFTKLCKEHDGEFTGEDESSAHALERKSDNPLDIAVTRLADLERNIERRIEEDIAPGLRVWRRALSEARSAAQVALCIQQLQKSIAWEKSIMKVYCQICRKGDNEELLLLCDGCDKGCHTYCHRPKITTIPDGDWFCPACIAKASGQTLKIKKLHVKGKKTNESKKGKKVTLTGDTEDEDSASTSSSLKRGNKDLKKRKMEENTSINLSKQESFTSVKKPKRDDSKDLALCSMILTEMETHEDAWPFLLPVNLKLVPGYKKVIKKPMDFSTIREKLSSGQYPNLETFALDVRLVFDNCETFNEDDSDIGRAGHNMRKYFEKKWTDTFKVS
In short: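 Protein-peptide AlphaScreen: BAZ2B 50 nM, b-H3K14Ac 50 nM, 1x PBS pH 7.4 + 0.01% Tween-20. Preincubation 30 min RT; cpd 30 min RT (top 110 uM); beads 20 min RT, light-protected.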
In the case of `COc1ccccc1Nc1cc(C)nc(Nc2ccccc2OC)n1`, the Potency is reported as inconclusive: 50.1 µM [inhibitor, partial curve]. In the case of `Cc1ccc(C)c(NC(=O)CN(C)C(=O)c2cccc(-n3cccc3)c2)c1`, the Potency is reported as active: 25.1 µM. In the case of `COc1ccc(S(=O)(=O)n2nc(-c3ccco3)nc2NCc2ccc(OC)c(OC)c2)cc1`, the “activity change, negative = inhibition” value is reported as inactive: -35.4%. `CCOc1ccc(CNCc2c(C(=O)O)n(Cc3ccc(OC)cc3)c3ccccc23)cc1` was tested, and the Potency was inconclusive: 56.2 µM [inhibitor, partial curve]. With `CCCCNCCOCCOc1ccc(F)cc1` the Potency was active: 79.4 µM. For `CN(C)S(=O)(=O)c1cccc(NC(=S)N/N=C/c2cc(Br)ccc2O)c1`, the Potency was active: 17.8 µM. `COc1ccccc1N1CCN(C(=O)c2cc(-c3ccc(F)cc3)[nH]c2C)CC1` was tested, and the Potency was inconclusive: 50.1 µM [inhibitor, partial curve]. With `CCOC(=O)C1CCN(C(C(=O)Nc2ccc3c(c2)OCCO3)c2ccccc2)CC1` (stereo unspecified) the Potency was inconclusive: 89.1 µM [inhibitor, single point]. For `Cc1cc(=O)n2[nH]c(=O)c(N=Nc3ccccc3)c2[nH]1`, the Potency was inconclusive: 89.1 µM [inhibitor, single point]. With `C#CCn1cc[n+](CC(=O)N(C)C)c1` the Potency was inconclusive: 89.1 µM [inhibitor, single point]. For `O=C(O)c1ccc(C=C(c2nc3ccccc3s2)c2nc3ccccc3s2)cc1`, the Potency was inconclusive: 50.1 µM [inhibitor, partial curve]. For `CCC1CN(S(=O)(=O)c2ccc3c(c2)NC(=O)CC(=O)N3)c2cc(Cl)ccc2O1` (stereo unspecified), the Potency was “inactive”. With `Cc1cccc(N2CCN(C(=O)CCC(=O)NNc3nc4ccccc4c4nc(C)nn34)CC2C)c1` (stereo unspecified) the Potency was inconclusive: 79.4 µM [inhibitor, partial curve]. With `CCN1/C(=C/c2ccc3cc(C)cc(C)c3[n+]2CC)Sc2cc(C)ccc21` the Potency was inconclusive: 20 µM [inhibitor, full curve]. In the case of `Cn1c(=O)c2c(-c3ccccc3Cl)n(Cc3ccc(Cl)cc3)cc2n(C)c1=O`, the “activity change, negative = inhibition” value is reported as inactive: -27.1%. In the case of `Cc1ccc(C)c(Nc2nc3c(S(=O)(=O)c4ccc(Br)cc4)nnn3c3ccsc23)c1`, the Potency is reported as active: 50.1 µM. With `O=C(NCc1ccco1)c1c2c(nc3ccccc13)CCC2` the Potency was active: 50.1 µM. With `COc1ccc2c(c1)nc(NCCO)n2C` the “activity change, negative = inhibition” value was inactive: -4.35%. `CCc1nnc(NS(=O)(=O)c2ccc(NC(=S)NC(=O)c3ccc(F)cc3)cc2)s1` was tested, and the Potency was inconclusive: 79.4 µM [inhibitor, single point]. In the case of `O=C(CCN1C(=O)/C(=C\C=C\c2ccccc2)SC1=S)Nc1ccc(C(=O)O)cc1`, the Potency is reported as active: 15.8 µM. `COc1ccc(S(=O)(=O)c2cc3cc(OC)ccc3oc2=O)cc1` was tested, and the “activity change, negative = inhibition” value was inactive: -8.65%. In the case of `Cn1ncc([N+](=O)[O-])c1C(=O)Nc1nc2ccccc2n1CCN1CCCCC1`, the Potency is reported as inconclusive: 31.6 µM [inhibitor, single point]. With `CCOc1cc(NC(=S)Nc2ccc(Cl)cc2)c(OCC)cc1NC(C)=O` the Potency was inconclusive: 70.8 µM [inhibitor, single point]. In the case of `COc1cc(/C=N/Nc2nc(C)cc(C)n2)cc(OC)c1OC`, the Potency is reported as inconclusive: 89.1 µM [inhibitor, single point]. In the case of `CN(C(=O)c1cccc(C#N)c1)c1nnc(-c2ccncc2)s1`, the “activity change, negative = inhibition” value is reported as inactive: -1.31%. With `COc1cc(/C=N/NC(=O)Cc2ccccc2)ccc1Oc1ccc([N+](=O)[O-])cc1[N+](=O)[O-]` the Potency was inconclusive: 56.2 µM [inhibitor, partial curve]. With `CCOC(=O)C1=C(CC)OC(N)=C(C#N)C1c1ccc(OC)c(OC)c1OC` (stereo unspecified) the “activity change, negative = inhibition” value was inactive: 8.15%. With `CC1CCN(c2ccc(C(=O)O)cc2N)CC1` the Potency was active: 50.1 µM. In the case of `CCN1CCN(c2oc(/C=C/c3ccccc3)nc2C#N)CC1`, the Potency is reported as inconclusive: 79.4 µM [inhibitor, single point]. In the case of `Cc1ccc(S(=O)(=O)N/N=C/c2ccc(OS(=O)(=O)c3ccc(C)c([N+](=O)[O-])c3)cc2)cc1`, the Potency is reported as inconclusive: 35.5 µM [inhibitor, full curve, poor fit]. `Cc1c(Cl)cnc(NC(=O)COC(=O)/C=C/c2ccco2)c1Cl` was tested, and the Potency was active: 50.1 µM. In the case of `COc1ccc(/C=C2/C(=O)OCc3cc(OC)c(OC)cc32)cc1`, the Potency is reported as inconclusive: 50.1 µM [inhibitor, partial curve]. `Cc1ccc(C(=O)Nc2c(C(=O)NCc3ccco3)cnn2-c2ccccc2)cc1` was tested, and the Potency was inconclusive: 56.2 µM [inhibitor, partial curve]. With `Cc1ccc(C)c(N2CCN(C(=O)Cn3c(C)c4cnn(-c5ccccc5)c(=O)c4c3C)CC2)c1` the Potency was inconclusive: 79.4 µM [inhibitor, partial curve]. With `COC(=O)c1ccccc1NC(=O)Cn1nc(C(F)(F)F)c2c1CCCC2` the “activity change, negative = inhibition” value was inactive: 20%. In the case of `CC(=O)c1cc(N2CCOCC2)ccc1[N+](=O)[O-]`, the Potency is reported as inconclusive: 89.1 µM [inhibitor, single point].
